Experimental data from doi:10.1101/2021.01.11.425814 (bioRxiv, 2021).

Molecular target: FOXO4 forkhead domain (FHD) (95-195) (human, UniProt P98177 95-195)
Assay: ITC

B1: p53 transactivation domain (TAD) ([…]) (domain or fragment)
chain: not shown
- Kd: 2190 nM
